According to PubChem BioAssay AID463173 (ICCB-Longwood Screening Facility, Harvard Medical School, 2010):
Screen size: about 52,000 compounds; about 4,300 (8.3%) were called active. Cut-off read from the data, not from the text of the source: active = survival mostly below about 52% (no sharp cut-off); inactive = mostly above about 56%. The list shows a part of the results.

test system: DeltatarO mutant; test: S. aureus survival, RN4220 and DeltatarO strains – OD600, teichoic acid synthesis inhibitors, primary screen (AID 463173); conditions: S. aureus RN4220 wild type/DeltatarO growth, OD600, 18 h, stronger effect = lower value, screened at 18.75 µg/mL (by protocol)

SMILES | survival
COc1ccc(Cn2ccc3nc(C)c(C(=O)N4CCN(c5ccccc5)CC4)cc3c2=O)cc1 | inactive: 85%
CCOC(=O)c1ccc(NC(=O)c2cn(-c3ccccc3)nc2-c2ccc(Br)cc2)cc1 | inactive: 70%
COCCNc1cn[nH]c(=O)c1Cl | inactive: 88%
CC(=O)C1=C(c2ccc(Cl)c(Cl)c2)N(C(C)=O)n2c(C)nnc2S1 | inactive: 128%
Cc1cccc(C)c1NC(=O)c1oc2c(c1C)-c1nn(Cc3ccccc3)cc1CC2 | active: 23%
CCCSCCCNC(=O)CN1C(=O)COc2ccc(S(=O)(=O)N3CCC(C)CC3)cc21 | inactive: 90%
COc1cc(OC)c(N(C)C(=O)c2nn(C)c3c2CSc2ccccc2-3)cc1Cl | inactive: 63%
CN1CCC(N(Cc2ccco2)C(=O)c2cc3sccc3n2Cc2ccccc2)CC1 | inactive: 63%
COc1ccc(NC(=O)N2CCN(C(=O)C(Cc3ccc(F)cc3)NC(C)=O)CC2)cc1 (stereo not drawn) | inactive: 92%
O=S(=O)(c1ccc2[nH]c3c(c2c1)CCCCC3)N1CCN(c2ccccc2)CC1 | inactive: 91%
COc1cccc(CNC(=O)c2cc(-c3cccc(OC)c3)n[nH]2)c1 | inactive: 71%
O=C(CCn1cnc2ccccc2c1=O)NCc1ccccc1 | inactive: 109%
Cc1ccc(N2CCN(C(=O)CCc3c(C)nc4c(c3C)c(=O)n(C)c(=O)n4C)CC2)c(C)c1 | inactive: 92%
Cc1cc(C)c2oc(-c3cccc(NC(=O)c4ccco4)c3)nc2c1 | inactive: 87%
CCC1CCCCN1CCCNC(=O)CN1C(=O)CSc2ccc(S(=O)(=O)N3CCC(C)CC3)cc21 (stereo not drawn) | inactive: 99%
Cc1cc2c(c3oc(=O)c4ccccc4c13)CN(Cc1ccc(F)cc1)CO2 | inactive: 68%
O=C(Nc1cccc(Cl)c1)Nc1ccccc1OCc1cc(=O)n2ccccc2n1 | inactive: 70%
Cc1nc2c(C(=O)N(C)Cc3ccccc3)c[nH]n2c(=O)c1Cc1ccc(Cl)cc1 | inactive: 88%
Cc1ccc(Cl)cc1N1CCN(C(=O)c2ccc3c(c2)N(Cc2ccccc2F)C(=O)c2ccccc2S3(=O)=O)CC1 | inactive: 79%
O=C(NCC(c1ccccc1)c1ccccc1)c1nn(-c2ccccc2Cl)nc1CO | inactive: 73%
CCOc1ccccc1NC(=O)c1sc(-n2nc(C)c(CCC(C)C)c2C)nc1C | inactive: 69%
O=C(CN1CCOCC1)N1CCN(c2ccccc2)CC1 | inactive: 84%

SMILES | survival
CCOc1ccc(C(C)N)cc1 (stereo not drawn) | inactive: 67%
CCCCOc1ccc(S(=O)(=O)N2CCN(c3ccccc3OCC)CC2)cc1 | inactive: 113%
COc1ccc(Cl)cc1NC(=O)CN(C)S(=O)(=O)c1ccc(Br)s1 | inactive: 99%
C=CCNc1nc(C(C)C)nc2c1nnn2Cc1ccccc1 | inactive: 86%
CCc1cccc(NC(=O)Cn2c(=O)n(CCc3ccc(OC)c(OC)c3)c(=O)c3ccccc32)c1 | inactive: 102%
Cc1ccc(C(=O)CSc2nc(C)cc(SCC#N)n2)cc1 | inactive: 80%
COc1ccc(CC(=O)NCc2ccc3c(c2)CCN3C(=O)c2ccc(C)cc2)cc1OC | inactive: 99%
O=C(Cn1ncc2c(=O)oc3ccccc3c21)NCc1ccccc1Cl | inactive: 79%
Cc1ccc(CNC(=O)Cn2ccn(-c3ccc(C)c(C)c3)c(=O)c2=O)cc1 | inactive: 67%
CN(C)c1ccc(CNC(=O)CN(C)S(=O)(=O)c2ccc3c(c2)c(=O)n(C)c(=O)n3C)cc1 | inactive: 97%
Cc1ccc(-n2nc3c(N4CCCC(C(=O)NCCc5ccccc5)C4)nnc(C)c3c2C)cc1 (stereo not drawn) | inactive: 94%
COc1cccc(C(=O)Nc2c(C(=O)NC(C)(C)C)oc3ccccc23)c1 | inactive: 112%
Cc1ccc(CCNC(=O)Cn2c(-c3cccs3)cc3cc(F)ccc32)cc1 | inactive: 90%
CCc1cccc2sc(N3CCN(C(=O)c4cc5ccccc5cc4OC)CC3)nc12 | inactive: 119%
CC1=C(C(=O)Nc2ccc(C)cc2C)C(c2ccc(Cl)cc2)n2nc(C(=O)OC(C)C)nc2N1 (stereo not drawn) | inactive: 53%
O=C(Cn1cnc(S(=O)(=O)N2CCCC2)c1)Nc1ccc(OC(F)(F)F)cc1 | inactive: 70%
CCc1ccc(NC(=O)c2cc3sc(Cl)cc3n2C)cc1 | inactive: 125%
COc1ccc(OC)c(NC(=O)Cn2cnc3c(oc4ccccc43)c2=O)c1 | inactive: 67%
COc1ccc(CN2COc3ccc4c(-c5ccccc5)cc(=O)oc4c3C2)cc1 | inactive: 109%
O=C1CCN(C(=O)c2ccccc2)C2CCCCC12 (stereo not drawn) | inactive: 95%
Cc1cccc(N2CCN(C(=O)C3CCN(S(=O)(=O)c4cccs4)CC3)CC2)c1C | inactive: 61%
O=C(Cn1ncc2c3ccccc3n(Cc3ccccc3F)c2c1=O)NCCc1ccc(Cl)cc1 | inactive: 50%

SMILES | survival
CCOC(=O)c1c(C)[nH]c(C)c1S(=O)(=O)N1CCCC(C(=O)Nc2ccc(OC)c(Cl)c2)C1 (stereo not drawn) | inactive: 85%
COc1ccc(Oc2nc3c(c(=O)n(Cc4ccccc4Cl)c(=O)n3C)n2C)cc1 | inactive: 55%
COC(=O)c1c(SCC(=O)Nc2ccccc2OC)[nH]c2ccccc2c1=O | inactive: 55%
Cc1cc2ccccc2n1-c1ccc(C(=O)N2CCC(C(=O)NCc3ccc(F)cc3)CC2)s1 | active: 6%
O=C(C1CC1)N1CCc2cc(Br)cc(S(=O)(=O)N3CCN(c4ccccc4F)CC3)c21 | inactive: 69%
COc1ccc(CNC(=O)Cn2ccc3cc(S(=O)(=O)N4CCCCCC4)ccc32)c(OC)c1 | inactive: 134%
Cc1ccc(NC(=O)C2CCN(c3nn4c(=O)cc(C)nc4s3)CC2)cc1 | inactive: 104%
Cc1c(Cl)cccc1NC(=O)CSc1cc(-c2ccccc2)ncn1 | inactive: 52%
COc1cccc(NC(=O)c2ccc(CNS(=O)(=O)c3ccc4c(c3)C(C)(C)C(=O)N4C)cc2)c1 | inactive: 51%
CC(C)n1c(=O)c2oc3ccccc3c2n(Cc2ccccc2F)c1=O | inactive: 50%
Cc1ccc(-c2nnc(Nc3ccc(O)cc3)c3ccccc23)cc1S(=O)(=O)NCC1CCCO1 (stereo not drawn) | inactive: 93%
COc1ccc(Cn2ccc3nc(C)c(C(=O)Nc4ccc(OC)cc4OC)cc3c2=O)cc1 | active: 8%
CNC(=O)N(O)C1N(c2ccccc2)C(=S)SC1(C)C (stereo not drawn) | inactive: 79%
Cc1ccc(C)c(CN2C(=O)c3ccccc3S(=O)c3ccc(C(=O)NCc4ccco4)cc32)c1 (stereo not drawn) | inactive: 72%
Cc1ccc(NC(=O)Cn2c(=O)n(CCc3ccccc3)c(=O)c3c4c(sc32)CCCC4)cc1C | inactive: 97%
Cc1ccc(NC(=O)Cn2cc(S(=O)(=O)NC(C)C)c(S(=O)(=O)NC(C)C)c2)cc1Cl | inactive: 95%
COc1cccc(NC(=O)N2CCN(c3nnnn3-c3ccccc3)CC2)c1 | inactive: 86%
CCc1ccc(NC(=O)Cn2c(=O)ccc3cc(S(=O)(=O)N4CCCC4)ccc32)cc1 | inactive: 144%
CCOC(=O)c1cccc(NC(=O)CCNS(=O)(=O)c2cccc3nonc23)c1 | active: 46%
CN(C)c1cccc(C(=O)Nc2ccc(-c3nc4ccccc4s3)cc2)c1 | inactive: 106%
O=C(CSc1nc2c(oc3ccccc32)c(=O)[nH]1)Nc1cccc(Cl)c1 | active: 37%
CC1=C(c2ccc(Cl)cc2)S(=O)(=O)NC1=NCc1ccc(C)cc1 | inactive: 86%

SMILES | survival
CC12CN3CC(C)(CN(C1)C3c1ccc(OCc3ccccc3)cc1)C2=O (stereo not drawn) | inactive: 89%
Cc1ccc(CCNC(=O)c2ccc(CSCc3ccc(C)cc3)o2)cc1 | inactive: 55%
CCOC(=O)c1ccc(NC(=O)c2cc3c(n(-c4ccc(C)cc4)c2=O)CC(C)(C)CC3=O)cc1 | inactive: 153%
Cn1c(C(=O)N2CCC(C(=O)NCCc3ccc(S(N)(=O)=O)cc3)CC2)cc2sccc21 | inactive: 77%
COc1ccc(-c2nc3scc(CCNS(=O)(=O)c4cccc(C(C)=O)c4)n3n2)cc1 | inactive: 84%
CCc1ccc(NC(=O)c2oc3c(c2C)-c2[nH]ncc2CC3)cc1 | inactive: 48%
CC1(C)C(=O)NCCN1C(=O)CSc1nccc(-c2ccccc2)n1 | inactive: 87%
CCc1ccc(NC(=O)c2ccc3c(c2)c(C)c(C)n3Cc2ccccc2)cc1 | inactive: 89%
CCOC(=O)c1cccc(Nc2cc(C)nc(C)n2)c1 | inactive: 65%
Cc1cccc(-n2ncc3c(Nc4c(C)cc(C)cc4C)ncnc32)c1 | inactive: 74%
Cc1nnc2c3ccccc3nc(N3CCN(c4cccc(Cl)c4)CC3)n12 | inactive: 92%
CCOCCCn1c(=N)c(C(=O)NC2CCCC2)cc2c(=O)n3cccc(C)c3nc21 | inactive: 77%
Oc1ccc(Nc2nc(-c3ccc(Cl)cc3)nc3ccccc23)cc1 | active: 3%
Cc1noc(Cn2c(=O)c3ccccc3n(CC(=O)Nc3ccccc3C(F)(F)F)c2=O)n1 | inactive: 99%
CC(C)n1c(N2CCN(Cc3ccc(Cl)cc3)CC2)nc2ccccc21 | inactive: 83%
CCc1ccc(NC(=O)CN2C(=O)CCSc3ccc(S(=O)(=O)N4CCCC4)cc32)cc1 | inactive: 94%
COc1ccc(C(=O)c2cn(Cc3cccc(C)c3)c3cc4c(cc3c2=O)OCCO4)cc1OC | inactive: 85%
Cc1nn2c(=O)cc(COC(=O)c3ccc(F)cc3)nc2s1 | inactive: 67%
Cc1ccc(N(C(=O)c2cccc(C)c2)S(=O)(=O)c2ccc(Cl)cc2)cc1 | inactive: 81%
CCN(CC)CCNC(=O)Cn1ncc2c3ccccc3n(Cc3ccccc3C)c2c1=O | inactive: 116%
COc1ccc(CCNC(=O)Cn2ccc3cc(S(=O)(=O)N4CCCCC4)ccc32)cc1OC | inactive: 88%
CC1CN(CCC(=O)Nc2ccc3c(c2)OCO3)CC(C)O1 (stereo not drawn) | inactive: 75%
